Test results reported in the BET-seq Pho4 binding data (Le et al. 2018).
Some of the results follow. The energies were worked out here from pooled read counts, against the library average; single values are noisy.

target: T1, Pho4 (S. cerevisiae) (UniProt P07270); test: relative binding free energy (BET-seq); higher = weaker binding; settings: reference: library average
T1 sequence: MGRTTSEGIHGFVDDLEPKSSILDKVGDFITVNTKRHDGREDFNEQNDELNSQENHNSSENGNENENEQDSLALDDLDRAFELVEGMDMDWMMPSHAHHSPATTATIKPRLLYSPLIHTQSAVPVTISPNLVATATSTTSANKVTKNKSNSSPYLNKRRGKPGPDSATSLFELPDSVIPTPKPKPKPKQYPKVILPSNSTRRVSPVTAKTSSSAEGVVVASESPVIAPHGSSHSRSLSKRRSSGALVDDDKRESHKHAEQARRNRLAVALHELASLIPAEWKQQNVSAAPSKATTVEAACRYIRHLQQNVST

Row | Sequence | relative binding free energy
1 | AAGGGCACGTGTGATC | -0.04 kcal/mol
2 | GTCGTCACGTGAGGCG | 0.28 kcal/mol
3 | ATGTGCACGTGGATTG | 0.02 kcal/mol
4 | TGTGGCACGTGTTGGC | -0.08 kcal/mol
5 | AAGGGCACGTGATAGG | -0.07 kcal/mol
6 | AGTATCACGTGATTTC | 0.34 kcal/mol
7 | TGTGGCACGTGCGAAA | 0.03 kcal/mol
8 | TCAATCACGTGGGTGT | 0.07 kcal/mol
9 | GGCTACACGTGAGGTA | 0.35 kcal/mol
10 | ACTTGCACGTGCGTGT | -0.05 kcal/mol
11 | TTAGGCACGTGTTGCT | -0.03 kcal/mol
12 | GTGGACACGTGGTGGT | 0.06 kcal/mol
13 | TCATTCACGTGGGGCG | 0.25 kcal/mol
14 | AGGTTCACGTGGTTCT | 0.15 kcal/mol
15 | GTTGTCACGTGTTGAA | 0.16 kcal/mol
16 | GTGTGCACGTGTTTCG | 0.01 kcal/mol
17 | ATGCTCACGTGTGTTT | 0.19 kcal/mol
18 | ATCGTCACGTGGGGAG | -0.05 kcal/mol
19 | TTGTGCACGTGAGAGG | 0.27 kcal/mol
20 | TTATACACGTGCGCTT | 0.08 kcal/mol
21 | GGAGTCACGTGTTGGC | 0.07 kcal/mol

Row | Sequence | relative binding free energy
22 | ATAATCACGTGTGTTA | 0.11 kcal/mol
23 | AAGAGCACGTGTATGG | -0.12 kcal/mol
24 | TATGGCACGTGTTGCA | -0.16 kcal/mol
25 | TCGTTCACGTGGGCAG | 0.06 kcal/mol
26 | AATATCACGTGGGAAG | 0.01 kcal/mol
27 | CTTGTCACGTGAGGTT | 0.19 kcal/mol
28 | AGATGCACGTGCTGAT | 0.1 kcal/mol
29 | TTTAACACGTGTTATT | 0.11 kcal/mol
30 | TGTCACACGTGTAAGT | 0.07 kcal/mol
31 | GAGTCCACGTGGGGCT | -0.02 kcal/mol
32 | TTTCGCACGTGGGATG | -0.2 kcal/mol
33 | GGGCTCACGTGGAATG | 0.3 kcal/mol
34 | GGTGGCACGTGGAATT | 0 kcal/mol
35 | TTGCACACGTGGTGGA | -0.09 kcal/mol
36 | GTCTACACGTGCGTGG | 0.07 kcal/mol
37 | GATGGCACGTGACGGG | 0.11 kcal/mol
38 | GGGGTCACGTGCGTTG | 0.11 kcal/mol
39 | CAGGTCACGTGTGGAG | 0.16 kcal/mol
40 | AAGCACACGTGTTGGG | 0.15 kcal/mol
41 | CTGCGCACGTGGGTGC | -0.2 kcal/mol
42 | GAGGTCACGTGGGGAT | 0.06 kcal/mol

Row | Sequence | relative binding free energy
43 | ATTTTCACGTGTTAAA | 0.02 kcal/mol
44 | ATGTCCACGTGTGGTC | 0.23 kcal/mol
45 | AGGTCCACGTGGGTTA | -0.16 kcal/mol
46 | TTAGGCACGTGTATGC | -0.04 kcal/mol
47 | TTGGTCACGTGCATAT | 0.11 kcal/mol
48 | GCGTTCACGTGTGTTT | 0.32 kcal/mol
49 | GTCGGCACGTGAGTTG | 0.16 kcal/mol
50 | GATGACACGTGAGATT | 0.37 kcal/mol
51 | TTTTACACGTGTTTTA | 0.12 kcal/mol
52 | TTGTACACGTGGGCTT | 0.01 kcal/mol
53 | AGCTGCACGTGTGCGG | 0.02 kcal/mol
54 | TATAGCACGTGTAGGG | 0.01 kcal/mol
55 | TGTCGCACGTGTGGGG | 0.03 kcal/mol
56 | CTCGGCACGTGTTGGT | -0.15 kcal/mol
57 | GGGCTCACGTGGTGTC | 0.2 kcal/mol
58 | GAGTTCACGTGGGGTT | 0.26 kcal/mol
59 | AGTATCACGTGTGTTT | 0.2 kcal/mol
60 | GCTGGCACGTGTGGGA | 0.14 kcal/mol
61 | TTAAGCACGTGTTTAG | -0.05 kcal/mol
62 | TGTAGCACGTGTGTGA | -0.11 kcal/mol
63 | TGTGGCACGTGGACGT | -0.05 kcal/mol
